Measured values from paper PMC4336329 (PLoS ONE, 2015).
Hit rate of the full screen: of about 310,000 compounds, about 2,200 (0.71%) showed an effect of 50% or more. The effect is printed as a negative number. The list shows a part of the results.

These compounds were tested against human ether-à-go-go-related gene (hERG) potassium channel (human, UniProt Q12809) (assay: primary screen, population patch clamp on CHO cells stably expressing hERG).
human ether-à-go-go-related gene (hERG) potassium channel, sequence (Q12809 whole entry, looked up): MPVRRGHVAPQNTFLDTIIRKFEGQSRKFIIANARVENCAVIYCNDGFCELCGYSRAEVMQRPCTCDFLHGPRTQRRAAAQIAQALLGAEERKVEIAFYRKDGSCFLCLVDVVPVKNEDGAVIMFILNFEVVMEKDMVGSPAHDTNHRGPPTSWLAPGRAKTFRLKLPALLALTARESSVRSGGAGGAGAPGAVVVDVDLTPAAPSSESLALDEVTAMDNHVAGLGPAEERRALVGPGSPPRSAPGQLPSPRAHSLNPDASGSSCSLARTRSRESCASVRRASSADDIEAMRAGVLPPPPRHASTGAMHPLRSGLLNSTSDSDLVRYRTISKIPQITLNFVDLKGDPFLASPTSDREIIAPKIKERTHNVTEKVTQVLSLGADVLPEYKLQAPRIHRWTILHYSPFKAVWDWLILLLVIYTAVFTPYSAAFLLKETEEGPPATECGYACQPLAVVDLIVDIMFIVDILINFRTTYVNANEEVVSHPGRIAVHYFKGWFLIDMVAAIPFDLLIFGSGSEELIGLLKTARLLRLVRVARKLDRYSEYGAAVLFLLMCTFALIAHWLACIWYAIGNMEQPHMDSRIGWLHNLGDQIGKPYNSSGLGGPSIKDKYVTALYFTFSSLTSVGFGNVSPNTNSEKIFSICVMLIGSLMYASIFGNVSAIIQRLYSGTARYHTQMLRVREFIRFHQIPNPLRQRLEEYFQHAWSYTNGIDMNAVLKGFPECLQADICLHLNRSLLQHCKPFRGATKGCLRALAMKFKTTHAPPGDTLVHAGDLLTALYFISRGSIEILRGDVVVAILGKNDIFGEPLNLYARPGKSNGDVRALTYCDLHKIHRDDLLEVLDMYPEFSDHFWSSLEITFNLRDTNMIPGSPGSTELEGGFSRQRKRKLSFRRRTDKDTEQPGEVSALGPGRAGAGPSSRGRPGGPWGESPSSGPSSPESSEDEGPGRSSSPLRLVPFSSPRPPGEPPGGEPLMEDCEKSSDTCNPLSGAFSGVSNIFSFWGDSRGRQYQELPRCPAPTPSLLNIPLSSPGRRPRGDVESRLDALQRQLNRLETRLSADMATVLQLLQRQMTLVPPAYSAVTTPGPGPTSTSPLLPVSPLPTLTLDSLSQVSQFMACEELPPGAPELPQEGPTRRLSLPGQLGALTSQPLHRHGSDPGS
CN(Cc1ccco1)S(=O)(=O)c1nnc(NC(=O)c2ccc(F)cc2)s1 was tested, and the “hERG current change (%, negative = inhibition) at 1uM” value was 10.4%.
In the case of CCCCNC(=O)CC1S/C(=N/N=C/c2ccc(OC)cc2)NC1=O (centres unmarked), the “hERG current change (%, negative = inhibition) at 1uM” value is reported as 13.3%.
In the case of COc1cc(C)c(Cl)cc1S(=O)(=O)N1CCCC1, the “hERG current change (%, negative = inhibition) at 1uM” value is reported as 16.6%.
For C#C[C@]1(O)CC[C@H]2[C@@H]3CCc4cc(OC5CCCC5)ccc4[C@H]3CC[C@@]21C, the “hERG current change (%, negative = inhibition) at 1uM” value was 17.6%.
In the case of CCCC(CCC)C(=O)Nc1ccc2c(c1)N(C(=O)CCN1CCN(C)CC1)c1ccccc1CC2.Cl, the “hERG current change (%, negative = inhibition) at 1uM” value is reported as 5.65%.
With CCOc1ccc(-c2cc(NC(=O)c3c(F)cccc3F)c(C(=O)O)s2)cc1 the “hERG current change (%, negative = inhibition) at 1uM” value was 16.4%.
For CC(=O)OCC(=O)[C@@]1(OC(C)=O)[C@@H](C)C[C@H]2[C@@H]3C[C@H](F)C4=CC(=O)C=C[C@]4(C)[C@@]3(F)[C@@H](O)C[C@@]21C, the “hERG current change (%, negative = inhibition) at 1uM” value was -5.51%.
With CC(C)[C@H](NC(=O)C1CCN(S(=O)(=O)c2ccc(F)cc2)CC1)C(=O)N1CCCCCC1 the “hERG current change (%, negative = inhibition) at 1uM” value was 25.7%.
With CNS(=O)(=O)c1cc(O)c2c(S(=O)(=O)NC)cccc2c1 the “hERG current change (%, negative = inhibition) at 1uM” value was 13.7%.
For CC(=O)NC(C)(C)C1CC=C(C)/C(=N\O)C1 (centres unmarked), the “hERG current change (%, negative = inhibition) at 1uM” value was -7.13%.
For CC(C)[C@H](NC(=O)NC1CCCC1)C(=O)O, the “hERG current change (%, negative = inhibition) at 1uM” value was 11%.
Cc1ccc(NC(=O)C2(N(CC(C)C)C(=O)Cn3nnnc3N)CCCCC2)cc1 was tested, and the “hERG current change (%, negative = inhibition) at 1uM” value was -0.3%.
In the case of CCCCS(=O)(=O)N1CCC(C(=O)Oc2ccc(Cl)cc2)CC1, the “hERG current change (%, negative = inhibition) at 1uM” value is reported as 17.9%.
With Cc1ccc(-c2noc(C3CCCN(C(=O)c4ccccc4Br)C3)n2)cc1 (centres unmarked) the “hERG current change (%, negative = inhibition) at 1uM” value was 12.4%.
For CC(=O)N1CCCc2cc(S(=O)(=O)Nc3ccc(C)cc3C)ccc21, the “hERG current change (%, negative = inhibition) at 1uM” value was -2.03%.
CC(N)Cc1c[nH]c2c1ccc1ccccc12.Cl (centres unmarked) was tested, and the “hERG current change (%, negative = inhibition) at 1uM” value was 12.7%.
In the case of COc1ccc(N/N=C(\C#N)C(=O)NCCc2ccc(OC)c(OC)c2)cc1, the “hERG current change (%, negative = inhibition) at 1uM” value is reported as 10.9%.
O=C(CNC(=O)c1ccco1)N/N=C/c1c[nH]c2ccccc12 was tested, and the “hERG current change (%, negative = inhibition) at 1uM” value was 6.71%.
O=C(O)CC(Cc1ccc(Br)cc1)C(=O)O (centres unmarked) was tested, and the “hERG current change (%, negative = inhibition) at 1uM” value was 9.97%.
For NC(=O)CC(NC(=O)c1ccccc1)c1ccc(NC2CCN(Cc3ccccc3)CC2)c([N+](=O)[O-])c1 (centres unmarked), the “hERG current change (%, negative = inhibition) at 1uM” value was 6.21%.
In the case of CC(C)OCCCNc1ncnc2c1cnn2-c1ccccc1, the “hERG current change (%, negative = inhibition) at 1uM” value is reported as 2.86%.
In the case of O=C(NCCCn1ccnc1)/C(=C/c1ccccc1)NC(=O)c1ccccc1, the “hERG current change (%, negative = inhibition) at 1uM” value is reported as -47.6%.
For Br.CCOc1ccc(C2=Nn3c(CC)nnc3SC2)cc1, the “hERG current change (%, negative = inhibition) at 1uM” value was 10.8%.
COc1ccc(Nc2nc3ccc(OC)cc3s2)cc1 was tested, and the “hERG current change (%, negative = inhibition) at 1uM” value was 7.96%.
O=C1NC(c2ccc(Cl)c([N+](=O)[O-])c2)Nc2ccccc21 (centres unmarked) was tested, and the “hERG current change (%, negative = inhibition) at 1uM” value was 16.9%.
With Cc1nn(C)cc1CN(C)Cc1ccc(OCC(O)CN2CCCCC2)cc1 (centres unmarked) the “hERG current change (%, negative = inhibition) at 1uM” value was 0.849%.
For O=C(NCc1ccc(F)cc1)C(C(=O)NCc1ccc(F)cc1)c1ncc(C(F)(F)F)cc1Cl, the “hERG current change (%, negative = inhibition) at 1uM” value was 6.17%.
With COc1cccc([C@@]2(O)CCCC[C@@H]2CN(C)C)c1.Cl the “hERG current change (%, negative = inhibition) at 1uM” value was 15.7%.
With Cc1ccc(N(CC(=O)NCCSc2ccccn2)S(C)(=O)=O)cc1 the “hERG current change (%, negative = inhibition) at 1uM” value was 11.7%.
In the case of COc1ccc2oc(=O)c(C(=O)OCc3ccccc3)cc2c1, the “hERG current change (%, negative = inhibition) at 1uM” value is reported as 13.9%.
In the case of CS(=O)(=O)N(CC(=O)NCCSCc1cccc(Cl)c1)c1ccc2c(c1)OCO2, the “hERG current change (%, negative = inhibition) at 1uM” value is reported as 9.95%.
O=C(CCc1n[nH]c(=O)[nH]c1=O)N1CCCCC1 was tested, and the “hERG current change (%, negative = inhibition) at 1uM” value was 10.1%.
For COc1ccc2c(C)cc(SCC(=O)Nc3ccc(Cl)cn3)nc2c1, the “hERG current change (%, negative = inhibition) at 1uM” value was 8.18%.
With Cc1cc(OCC(=O)Nc2ncn[nH]2)ccc1Cl the “hERG current change (%, negative = inhibition) at 1uM” value was 11.2%.
With O=S(=O)(NCc1ccccc1)c1ccc(Br)c2nsnc12 the “hERG current change (%, negative = inhibition) at 1uM” value was 10.5%.
Brc1ccc(NCc2cccc3ccccc23)nc1 was tested, and the “hERG current change (%, negative = inhibition) at 1uM” value was 14.4%.
For CC1CC(Nc2ccccc2)c2ccccc2N1C(=O)c1ccccc1F (centres unmarked), the “hERG current change (%, negative = inhibition) at 1uM” value was 14.1%.
In the case of CCc1ccc(C(c2c(C)nn(-c3ccccc3)c2N)c2c(C)nn(-c3ccccc3)c2N)cc1, the “hERG current change (%, negative = inhibition) at 1uM” value is reported as 0.152%.
CNS(=O)(=O)c1cccc(C(=O)OCC(=O)NC2CCCC2)c1 was tested, and the “hERG current change (%, negative = inhibition) at 1uM” value was 12.1%.
With Cc1cc(C)n(S(=O)(=O)c2ccccc2)n1 the “hERG current change (%, negative = inhibition) at 1uM” value was 3.01%.
In the case of O=C(CNCc1ccc(F)cc1)Nc1ccc(S(=O)(=O)N2CCOCC2)cc1, the “hERG current change (%, negative = inhibition) at 1uM” value is reported as 5.06%.
For C/C(=C\COc1ccc2ccc(=O)oc2c1)CC[C@@H](O)C(C)(C)O, the “hERG current change (%, negative = inhibition) at 1uM” value was 14.5%.
In the case of O=C(O)c1ccccc1C(=O)Nc1ccc(-n2nc(C(F)(F)F)cc2C(F)(F)F)cc1, the “hERG current change (%, negative = inhibition) at 1uM” value is reported as 8.59%.
In the case of C=CCn1c(=O)c2ccccc2n2c(SCc3cc(=O)n4ccsc4n3)nnc12, the “hERG current change (%, negative = inhibition) at 1uM” value is reported as 4.25%.
